Positions count from the first letter of the chain named. The list shows a part of the results.

T1: RBFOX1 RRM RbFoxmut (Fox-RRM*) (Homo sapiens, UniProt Q9NWB1 109-208, R118D;E147R;N151S;E152T)
T1 sequence: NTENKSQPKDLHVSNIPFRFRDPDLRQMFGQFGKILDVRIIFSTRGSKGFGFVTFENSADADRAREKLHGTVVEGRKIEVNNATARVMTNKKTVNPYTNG

B1: GCGGACA (DNA:RNA)
RNA: GGGAGACCGGAAUUCAGAUUGUCCGCGGACAUUAAAUCCCGUCGUAGCCACCA
DNA 1: CAATCTGAATTCCGGTCTCCC
DNA 2: TGGTGGCTACGACGGGATT
B2: UGUCACG (DNA:RNA)
RNA: B1 RNA with G25U, C26G, G27U, G28C, A31G
DNA 1: CAATCTGAATTCCGGTCTCCC
DNA 2: TGGTGGCTACGACGGGATT
B3: GAGACCG (DNA:RNA)
RNA: B1 RNA with C26A, G28A, A29C, A31G
DNA 1: CAATCTGAATTCCGGTCTCCC
DNA 2: TGGTGGCTACGACGGGATT
B4: UGCAGCU (DNA:RNA)
RNA: B1 RNA with G25U, C26G, G27C, G28A, A29G, A31U
DNA 1: CAATCTGAATTCCGGTCTCCC
DNA 2: TGGTGGCTACGACGGGATT
B5: AAGUCAA (DNA:RNA)
RNA: B1 RNA with G25A, C26A, G28U, A29C, C30A
DNA 1: CAATCTGAATTCCGGTCTCCC
DNA 2: TGGTGGCTACGACGGGATT
B6: AAGGAUG (DNA:RNA)
RNA: B1 RNA with G25A, C26A, C30U, A31G
DNA 1: CAATCTGAATTCCGGTCTCCC
DNA 2: TGGTGGCTACGACGGGATT
B7: GUCAUUG (DNA:RNA)
RNA: B1 RNA with C26U, G27C, G28A, A29U, C30U, A31G
DNA 1: CAATCTGAATTCCGGTCTCCC
DNA 2: TGGTGGCTACGACGGGATT
B8: CUAACUC (DNA:RNA)
RNA: GGGAGACCGGAAUUCAGAUUGUCCCUAACUCUUAAAUCCCGUCGUAGCCACCA
DNA 1: CAATCTGAATTCCGGTCTCCC
DNA 2: TGGTGGCTACGACGGGATT
B9: GUACCUG (DNA:RNA)
RNA: B8 RNA with C25G, A28C, C31G
DNA 1: CAATCTGAATTCCGGTCTCCC
DNA 2: TGGTGGCTACGACGGGATT
B10: CAGGACC (DNA:RNA)
RNA: B1 RNA with G25C, C26A, A31C
DNA 1: CAATCTGAATTCCGGTCTCCC
DNA 2: TGGTGGCTACGACGGGATT
B11: GUGGACC (DNA:RNA)
RNA: B1 RNA with C26U, A31C
DNA 1: CAATCTGAATTCCGGTCTCCC
DNA 2: TGGTGGCTACGACGGGATT
B12: GCGAUAG (DNA:RNA)
RNA: B1 RNA with G28A, A29U, C30A, A31G
DNA 1: CAATCTGAATTCCGGTCTCCC
DNA 2: TGGTGGCTACGACGGGATT
B13: CAAUGGU (DNA:RNA)
RNA: B8 RNA with U26A, A28U, C29G, U30G, C31U
DNA 1: CAATCTGAATTCCGGTCTCCC
DNA 2: TGGTGGCTACGACGGGATT
B14: GUAGACC (DNA:RNA)
RNA: B1 RNA with C26U, G27A, A31C
DNA 1: CAATCTGAATTCCGGTCTCCC
DNA 2: TGGTGGCTACGACGGGATT
B15: CUAGUCG (DNA:RNA)
RNA: B8 RNA with A28G, C29U, U30C, C31G
DNA 1: CAATCTGAATTCCGGTCTCCC
DNA 2: TGGTGGCTACGACGGGATT
B16: AGCUAAG (DNA:RNA)
RNA: B1 RNA with G25A, C26G, G27C, G28U, C30A, A31G
DNA 1: CAATCTGAATTCCGGTCTCCC
DNA 2: TGGTGGCTACGACGGGATT
B17: AUCUUGG (DNA:RNA)
RNA: B8 RNA with C25A, A27C, A28U, C29U, U30G, C31G
DNA 1: CAATCTGAATTCCGGTCTCCC
DNA 2: TGGTGGCTACGACGGGATT
B18: AACCCAU (DNA:RNA)
RNA: B8 RNA with C25A, U26A, A27C, A28C, U30A, C31U
DNA 1: CAATCTGAATTCCGGTCTCCC
DNA 2: TGGTGGCTACGACGGGATT
B19: AAGGUUC (DNA:RNA)
RNA: B8 RNA with C25A, U26A, A27G, A28G, C29U
DNA 1: CAATCTGAATTCCGGTCTCCC
DNA 2: TGGTGGCTACGACGGGATT
B20: CGAGCGA (DNA:RNA)
RNA: B8 RNA with U26G, A28G, U30G, C31A
DNA 1: CAATCTGAATTCCGGTCTCCC
DNA 2: TGGTGGCTACGACGGGATT
B21: GCUAGCG (DNA:RNA)
RNA: B1 RNA with G27U, G28A, A29G, A31G
DNA 1: CAATCTGAATTCCGGTCTCCC
DNA 2: TGGTGGCTACGACGGGATT
B22: GCGACAG (DNA:RNA)
RNA: B1 RNA with G28A, A29C, C30A, A31G
DNA 1: CAATCTGAATTCCGGTCTCCC
DNA 2: TGGTGGCTACGACGGGATT
B23: UGAUAUU (DNA:RNA)
RNA: B8 RNA with C25U, U26G, A28U, C29A, C31U
DNA 1: CAATCTGAATTCCGGTCTCCC
DNA 2: TGGTGGCTACGACGGGATT
B24: ACGAUAU (DNA:RNA)
RNA: B1 RNA with G25A, G28A, A29U, C30A, A31U
DNA 1: CAATCTGAATTCCGGTCTCCC
DNA 2: TGGTGGCTACGACGGGATT
B25: CACGGUG (DNA:RNA)
RNA: B8 RNA with U26A, A27C, A28G, C29G, C31G
DNA 1: CAATCTGAATTCCGGTCTCCC
DNA 2: TGGTGGCTACGACGGGATT
B26: CCCAUAC (DNA:RNA)
RNA: B8 RNA with U26C, A27C, C29U, U30A
DNA 1: CAATCTGAATTCCGGTCTCCC
DNA 2: TGGTGGCTACGACGGGATT
B27: CAGUCCU (DNA:RNA)
RNA: B8 RNA with U26A, A27G, A28U, U30C, C31U
DNA 1: CAATCTGAATTCCGGTCTCCC
DNA 2: TGGTGGCTACGACGGGATT
B28: UAACCCA (DNA:RNA)
RNA: B8 RNA with C25U, U26A, A28C, U30C, C31A
DNA 1: CAATCTGAATTCCGGTCTCCC
DNA 2: TGGTGGCTACGACGGGATT
B29: GGGACAG (DNA:RNA)
RNA: B8 RNA with C25G, U26G, A27G, U30A, C31G
DNA 1: CAATCTGAATTCCGGTCTCCC
DNA 2: TGGTGGCTACGACGGGATT
B30: GGUAAGG (DNA:RNA)
RNA: B1 RNA with C26G, G27U, G28A, C30G, A31G
DNA 1: CAATCTGAATTCCGGTCTCCC
DNA 2: TGGTGGCTACGACGGGATT
B31: UAUGGAA (DNA:RNA)
RNA: B1 RNA with G25U, C26A, G27U, A29G, C30A
DNA 1: CAATCTGAATTCCGGTCTCCC
DNA 2: TGGTGGCTACGACGGGATT

This test concerns the target T1, RBFOX1 RRM RbFoxmut (Fox-RRM*). The test is described as follows: EMSA; HiTS-Eq, 1 nM pool, 10 min; buffer printed only for the single-RNA assays: 10 mM Tris pH 7.5, 150 mM NaCl, 3.4 mM EDTA, 0.001% NP-40, 30 C. The following applies: tags: His6 N-terminal (pET28a); label: 5' 32P. The method in brief: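 Relative association constants, normalised to the cognate motif, were derived by comparing read counts of each RNA species with those of the control reaction. The RNA sequenced was the free fraction, separated by 8% native PAGE after a 10 min equilibration in 50 µL of 1 nM 5′-radiolabelled RNA (7 randomized nucleotides) with increasing concentrations of purified wild-type or mutant RbFox RRM.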
Background: In EMSA bound probe runs differently from free probe, usually more slowly.
As for B1, the binding signal was 0.0656 KA relative to UGCAUGU. As for B2, the binding signal is 0.162 KA relative to UGCAUGU. B3: the binding signal is 0.0845 KA relative to UGCAUGU. Take B4: the binding signal was 0.101 KA relative to UGCAUGU. Turning to B5, the binding signal is 0.0881 KA relative to UGCAUGU. For B6, the binding signal was 0.174 KA relative to UGCAUGU.

On to B7, for which the binding signal was 0.169 KA relative to UGCAUGU. Consider B8, for which the binding signal was 0.0451 KA relative to UGCAUGU. B9: the binding signal was 0.077 KA relative to UGCAUGU. Regarding B10, the binding signal is 0.0581 KA relative to UGCAUGU. Regarding B11, the binding signal is 0.0915 KA relative to UGCAUGU. As to B12, the binding signal was 0.115 KA relative to UGCAUGU.

For the molecule B13, the binding signal is 0.121 KA relative to UGCAUGU. Next, B14: 0.0704 KA relative to UGCAUGU. Next, B15: 0.085 KA relative to UGCAUGU; B16: 0.124 KA relative to UGCAUGU. As to B17, the binding signal was 0.0984 KA relative to UGCAUGU. For B18, the binding signal is 0.0847 KA relative to UGCAUGU.

B19: the binding signal was 0.0982 KA relative to UGCAUGU. Take B20: the binding signal was 0.0809 KA relative to UGCAUGU.

In the case of B21, the binding signal was 0.114 KA relative to UGCAUGU. On to B22, for which the binding signal was 0.086 KA relative to UGCAUGU. B23: the binding signal was 0.0838 KA relative to UGCAUGU. On to B24, for which the binding signal was 0.114 KA relative to UGCAUGU.

Consider B25, for which the binding signal was 0.131 KA relative to UGCAUGU.

As to B26, the binding signal is 0.0589 KA relative to UGCAUGU. As for B27, the binding signal is 0.0911 KA relative to UGCAUGU. For B28, the binding signal was 0.0992 KA relative to UGCAUGU. For B29 the value was 0.0862 KA relative to UGCAUGU; for B30, 0.0619 KA relative to UGCAUGU; for B31, 0.0852 KA relative to UGCAUGU.

The record behind these values is PMC9911399, “Two distinct binding modes provide the RNA-binding protein RbFox with extraordinary sequence specificity”.
